In PubChem BioAssay AID1508642 (National Center for Advancing Translational Sciences (NCATS), 2021):
Among all 43,000 compounds or so, about 200 (0.47%) were called active. Another 12% or so got no clear call; they are omitted. The call rests on the fitted dose curve; in most records, active means well fitted cell-killing curve with a large enough effect; inconclusive means small, poorly fitted or top-dose-only effect, or effect the other way; inactive means flat fitted curve, though single readings scatter. The list shows a part of the results.

assay: Cell viability qHTS assay in S16 Pmp22-F2sN cells; conditions: S16 Pmp22-F2sN Schwann cells viability, CellTiter-Glo, 24 h; series mostly up to 57.5 µM; activity change, negative = cytotoxicity: at the top concentration; further: nearly all actives have a fitted effect of over 65% in size
In short: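 S16 Pmp22-F2sN Schwann cells (500-1,000/well) in phenol-red-free DMEM with 10% FBS received 23 nL compound by pin tool for 24 h at 37 °C. Viability was then read as CellTiter-Glo luminescence after 15 min at room temperature.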
On the % scale 0 is the no-effect control and ±100 the full control effect.

SMILES | activity change, negative = cytotoxicity
Cc1ccc(C(=O)NCC(=O)OCc2cc(=O)n3nc(C4CCCCC4)sc3n2)cc1 | inactive: -0.702%
COc1ccc(Cl)cc1NC(=O)C(C)n1nnc2sc3c(c2c1=O)CCCC3 (stereo unspecified) | inactive: 10.5%
Cc1cc(C)cc(N2C(=O)CC(c3ccc(C(F)(F)F)cc3)C3=C2COC3=O)c1 (stereo unspecified) | inactive: 6.07%
COc1ccccc1C(=O)Nc1cc(-c2cccc(Br)c2)nn1-c1ccccc1 | inactive: -22.7%
CCN1CCN(c2csc3ccc(Cl)cc3c2=O)CC1 | inactive: 6.89%
CCc1cccc(NC(=O)Cn2nc(CC)n3c(cc4cc(C)ccc43)c2=O)c1 | inactive: 1.2%
O=c1oc2ccc3ccccc3c2cc1-c1nnc(Nc2ccccc2)s1 | inactive: 9.18%
COc1ccc(C(=O)NC2(C(F)(F)F)C(=O)NC(C)=C2C#N)cc1 (stereo unspecified) | inactive: 10.1%
CCC(Oc1ccc(F)cc1)C(=O)Nc1cc(-c2ccc(C)cc2)no1 (stereo unspecified) | inactive: -0.923%
COc1cccc(CNC(=O)Nc2cc(C(=O)NCc3cccc(F)c3)ccc2N2CCCC2)c1 | inactive: 4.98%
CCNC(=O)CCSc1nnc(-c2ccc(O)cc2)o1 | inactive: 0.719%
Cn1c(=O)c2ccccc2n2c(CCC(=O)N3CCN(c4cccc(Cl)c4)CC3)nnc12 | inactive: 2.19%
CCN(CC)c1ccc(NC(=O)c2cc(CN3CCCC3)on2)c(C)c1 | inactive: -26.4%
CCOc1cc(CNC(=O)c2ccc(NC(=O)c3nsc4ccccc34)cc2)ccc1OC | inactive: -16.4%
COc1ccccc1NC(=O)CSc1nc2c(oc3ccccc32)c(=O)n1-c1ccc(C)cc1 | inactive: -1.73%
CCOC(=O)N1CCc2c(sc3c2c(=O)n(-c2ccc(Cl)cc2)c(=O)n3CC(=O)c2ccc(F)cc2)C1 | inactive: 0.228%
COc1ccc(NS(=O)(=O)c2nnc(NC(=O)c3ccccc3F)s2)cc1 | inactive: -2.53%
Cc1cc(Br)ccc1NC(=O)c1cc2c(s1)-c1ccccc1SC2 | inactive: -4.69%
O=C(CCCn1c(=O)c2cccn2c2cccnc21)NCCc1ccc(Cl)cc1 | inactive: 7.92%
COc1ccc(CN2C(=O)C(NC(=O)c3ccc(C)cc3)(C(F)(F)F)N=C2c2ccccc2)cc1 (stereo unspecified) | inactive: 10.3%
Cc1ccc(CNc2nc3c(S(=O)(=O)c4ccccc4)nnn3c3ccsc23)cc1 | inactive: 3.19%
CCOc1ccc(NC(=O)Cc2csc(COc3cccc(C)c3)n2)cc1 | inactive: -5.5%
CCOc1ccccc1C1C(C(=O)Nc2ccccc2OC)=C(C)Nc2nc3ccccc3n21 (stereo unspecified) | inactive: 26.6%
Cc1ccc2nc(NC(=O)c3cc(=O)c4cc(C)c(C)cc4o3)sc2c1 | inactive: -0.514%

SMILES | activity change, negative = cytotoxicity
Cc1ccc(C)c(NC(=O)CSc2cn(CC(=O)N3CCCC3)c3ccccc23)c1 | inactive: -0.406%
CCCN1C(=O)C(NC(=O)c2ccccc2OC)(C(F)(F)F)C(C(=O)OC)=C1C (stereo unspecified) | inactive: 3.61%
CCc1nnc2c3ccccc3nc(N3CCN(c4ccc(C)cc4C)CC3)n12 | inactive: 2.35%
O=C(NCCc1csc(-c2cccnc2)n1)c1cccc(C(F)(F)F)c1 | inactive: -4.65%
COc1ccccc1CNC(=O)c1ccc(C)c(-n2cnc3cccnc32)c1 | inactive: 0.0891%
COc1cccc(NC(=O)Cn2c(=O)n(-c3ccc(CC(=O)NCC4CCCO4)cc3)c(=O)c3ccccc32)c1 (stereo unspecified) | inactive: 2.62%
CCOc1ccccc1NC(=O)c1cccc2c1C(=O)N(C1CCCCC1)C2 | inactive: 9.22%
CCC(=O)Nc1nnc(S(=O)(=O)N(C)Cc2ccccc2)s1 | inactive: 10.1%
CSc1ncc(Cl)c(C(=O)N(Cc2ccccc2Cl)C2CCS(=O)(=O)C2)n1 (stereo unspecified) | inactive: 6.72%
Cc1ccc(Cl)cc1NC(=O)Cn1c(=O)c(CNc2ccccc2)cc2cc3c(cc21)OCCO3 | inactive: -0.984%
Cc1sc2ncn(CC(=O)Nc3cccc(C(F)(F)F)c3)c(=O)c2c1S(=O)(=O)N1CCC(C)CC1 | inactive: -14.3%
COc1cccc(C(=O)NC(=O)Nc2ccc(-c3cc(C(F)(F)F)nn3-c3ccccc3)cc2)c1 | inactive: 1.15%
COc1ccc(C2c3c(-c4ccccc4O)n[nH]c3C(=O)N2Cc2ccco2)cc1 (stereo unspecified) | inactive: -5.15%
CCOC(=O)C1=C(CN2CCN(c3ccccc3)CC2)NC(=O)NC1c1ccc(C)cc1 (stereo unspecified) | inactive: 5.81%
O=C(Nc1ccccc1C(=O)OCc1cc(=O)n2nc(C3CC3)sc2n1)c1cccc(Cl)c1 | inactive: 5.46%
COc1ccc(C(=O)Nc2cc(C(F)(F)F)ccc2N2CCN(c3ccccc3)CC2)cc1OC | inactive: 6.91%
Cc1cccc(Cn2c(CN3CCC(C(=O)NCCc4ccccc4)CC3)cc3ccccc32)c1 | inactive: -18.1%
CCN(c1cccc(C)c1)S(=O)(=O)c1nnc(NC(=O)c2cccs2)s1 | inactive: -0.409%
COc1ccc(-c2c(C)nn3c4c(cnc23)C(=O)CC(c2ccc(C)cc2)C4)cc1 (stereo unspecified) | inactive: 2.07%
CCCCn1c(-c2ccc(S(=O)(=O)N3CCOCC3)cc2)csc1=Nc1ccccc1 | inactive: 11.1%
Cn1c(C(=O)NCc2ccc(F)cc2)cc2c(=O)n(C)c3ccccc3c21 | inactive: 5.43%
CCCn1c(=O)c2sccc2n2c(CCCC(=O)N3CCN(c4ccccc4)CC3)nnc12 | inactive: 3.73%
COc1ccc(CCNC(=O)Cn2nnc(-c3ccc(C(F)(F)F)cc3)n2)cc1OC | inactive: 3.18%
CCS(=O)(=O)c1ncc(N(Cc2ccco2)Cc2sccc2C)c(C(=O)Nc2cc(C)ccc2C)n1 | inactive: 0.336%

SMILES | activity change, negative = cytotoxicity
Cc1ccccc1NS(=O)(=O)c1ccc2[nH]cc(C(=O)N3CCCC3)c(=O)c2c1 | inactive: -6.88%
Cc1nc2ccn(Cc3cccnc3)c(=O)c2cc1C(=O)Nc1ccc(OC(F)(F)F)cc1 | inactive: -15%
COCCn1c(SCC(=O)Nc2ccc(F)c(Cl)c2)nc2c(oc3ccccc32)c1=O | inactive: -24.5%
COc1ccc(C(=O)NCCc2sc(-c3cccc(F)c3)nc2C)cc1 | inactive: -3.63%
Cc1cccc(CCn2c(=O)c3ccccc3n(Cc3cccc(F)c3)c2=O)c1 | inactive: 28.8%
CC1CCc2nc(NC(=O)COc3ccc(C(C)(C)C)cc3)sc2C1 (stereo unspecified) | inactive: -3.12%
CC(=O)c1cccc(NC(=O)CCS(=O)(=O)c2cc(Br)cc3c2N(C(=O)C2CC2)CC3)c1 | inactive: 0.833%
CCCC(=O)N1CC(=O)Nc2ccc(Cl)cc2C1c1ccc(F)cc1 (stereo unspecified) | inactive: -4.9%
CC(=O)N1CCCc2cc(S(=O)(=O)N3CCC(C(=O)NCCC(C)C)CC3)ccc21 | inactive: 10.6%
O=C(NC1CC(=O)N(c2ccc(F)cc2)C1)c1cc2ccccc2o1 (stereo unspecified) | inactive: -7.5%
Cc1nc2c(C(=O)NCc3ccccc3Cl)cnn2c(C)c1Cc1c(F)cccc1Cl | inactive: -6.66%
CCOC(=O)c1nnc2c(-c3ccc(OC)cc3)c(C)nn2c1N | inactive: 21.9%
CN1CCN(C(c2ccccc2)c2sc3nc(-c4ccco4)nn3c2O)CC1 (stereo unspecified) | inactive: -2.18%
CC(=O)c1sc2c(c1C)c(=O)n(-c1ccc(Cl)cc1)c(=O)n2Cc1ccc(Cl)cc1 | inactive: -17.8%
Cc1cc(C)c(Cn2c(C)c(CNCCCc3ccccc3)c(C(=O)O)c2C)c(C)c1 | inactive: -9.95%
CCOC(=O)c1c(NC(=O)c2noc3c2CC(C(C)(C)C)CC3)sc2c1CCCC2 (stereo unspecified) | inactive: -0.655%
Cc1ccc(C)c(N2CCN(C(=O)CN3C(=O)COc4ccc(S(=O)(=O)N5CCCCCC5)cc43)CC2)c1 | inactive: 6.68%
CCOC(=O)c1ccc(NC(=O)C2Cc3ccccc3CN2S(=O)(=O)c2ccc(Cl)cc2)cc1 (stereo unspecified) | inactive: -3.36%
O=C(NCC(c1cccs1)S(=O)(=O)c1cccs1)c1ccccc1 (stereo unspecified) | inactive: -7.31%
Cc1cc(Br)ccc1NC(=O)CCS(=O)(=O)c1cccc2nonc12 | inactive: 13%
CCOC(=O)N1CCN(S(=O)(=O)N2CCCC(C(=O)NCc3cccc(OC)c3)C2)CC1 (stereo unspecified) | inactive: -2.2%
CCC1CN(C(=O)N2CCC(C(=O)NCc3ccc(C)o3)CC2)c2cc(C)ccc2O1 (stereo unspecified) | inactive: 3.77%
CCOC(=O)c1cc2c(=O)n3ccccc3nc2n(CC2CCCO2)c1=NC(=O)c1cccc(C(F)(F)F)c1 (stereo unspecified) | inactive: 1.26%
CC(=O)N1CCC(N(Cc2ccco2)C(=O)Nc2cccc(C)c2)CC1 | inactive: -9.61%

SMILES | activity change, negative = cytotoxicity
Cc1cccc(NC(=O)c2cnn(-c3ccccc3)c2-n2cccc2)c1C | inactive: -19.1%
COc1cccc(CNC(=O)c2cc3cccc4c3n2CC(C)S4)c1OC (stereo unspecified) | inactive: -9.22%
C#CCn1c(COc2ccccc2C)nc2ccccc21 | inactive: 0.146%
Cc1cccc(N(C)C(=O)CN2C(=O)COc3ccc(S(=O)(=O)N4CCCCCC4)cc32)c1 | inactive: 1.71%
Cn1c(CNC(=O)CSc2n[nH]c(-c3ccccc3Cl)n2)nc2ccccc21 | inactive: 4.42%
COc1cc(OC)c(OC)cc1CNCCSc1nnnn1-c1ccccc1 | inactive: 3.68%
COc1cc2c(=O)c(S(=O)(=O)c3ccc(F)cc3)cn(Cc3ccccc3C)c2cc1OC | inactive: 16.9%
Cc1ccc(-c2noc(-c3ccc(N4CCC(C)CC4)c([N+](=O)[O-])c3)n2)cc1 | inactive: 3.97%
CCOc1cccc2cc(-c3cn4c(n3)sc3cc(C)ccc34)c(=O)oc12 | inactive: 1.91%
COc1ccc(OCc2nc3ccccc3n2C(C)c2ccccc2)cc1 (stereo unspecified) | inactive: -0.296%
Cc1ccnc(NS(=O)(=O)c2ccc(NC(=O)C(C)(C)Oc3ccc(Cl)cc3)cc2)n1 | inactive: -18.5%
CCOc1ccccc1NC(=O)CSc1nc2c(c(=O)[nH]1)CCC2 | inactive: -0.79%
O=C(Nc1ccc(Cl)cc1F)c1oc(=O)c2ccccc2c1-c1ccccc1 | inactive: 10.3%
O=C(Cc1ccccc1)N(Cc1cccnc1)c1nc2c(F)cccc2s1 | inactive: -22%
O=C(NCc1ccc(Cl)cc1)c1ccc(CSCc2cccc(Cl)c2)o1 | inactive: -26.2%
Cc1ccccc1OC(=O)c1snnc1C | inactive: 1.84%
CCOc1cc(C2Nc3ccccc3-c3nnc(SCc4ccccc4)nc3O2)ccc1OC (stereo unspecified) | inactive: -12.9%
Cc1cc(Br)ccc1NC(=O)C(Cc1ccccc1)NS(=O)(=O)c1ccc(Br)s1 (stereo unspecified) | inactive: 16%
CCC(C(=O)Nc1ccc(C(=O)OC)cc1)n1nc(-c2ccc(C)cc2)c2c(c1=O)CCCC2 (stereo unspecified) | inactive: -19.5%
Nc1nc(Nc2cccc(C(F)(F)F)c2)sc1C(=O)c1ccccc1 | inactive: 9.77%
Cc1cc(C)c2c(CC(=O)Nc3ccc(S(=O)(=O)N4CCCC(C)C4)cc3)coc2c1 (stereo unspecified) | inactive: -16.5%
Cc1ccc(OCC(=O)Nc2cccc(OCc3cc(=O)n4ccccc4n3)c2)cc1C | inactive: -1.25%
O=C(Nc1ccc(Br)cc1)C1CCCN(S(=O)(=O)c2ccc(Br)s2)C1 (stereo unspecified) | inactive: 8.9%
CCc1ccccc1NC(=O)C(CC)Sc1ncnc2c1sc1ccccc12 (stereo unspecified) | inactive: 5.94%
